The supplement of paper PMC7125110
± gives the standard error. This sample is rich in variants without activity.

B1: glmS ribozyme (parent)
chain: AUAAAAGCGCCAGAACUACAGAAAUGUAGUUGACGAGGAGGAGGUUUAUCGAAUUUUCGGCGGAUGCCUCCAAA

How the values were obtained:
Conditions in all cases: with glucosamine-6-phosphate
glucosamine-6-phosphate [1] = variants of: B1; assay: self-cleavage kobs at 40 uM GlcN6P; higher = faster cleavage; RNA array
Summary of the method: (§1)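 Tiles of sequenced MiSeq chips were imaged over ~14 h at 37 °C. On them, barcoded ribozyme variants had been transcribed in situ by E. coli RNA polymerase and were tracked via a hybridised Cy3 probe while glucosamine-6-phosphate (40 μM to 10 mM) in HEPES/KCl/Mg(OAc)2 buffer flowed in. Per-tile medians, normalised to baseline and to non-cleaving reference variants, were fit to one- or two-exponential decays for kobs, and weighted Michaelis–Menten fits gave kcat and KM.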

glucosamine-6-phosphate [2] = variants of: B1; assay: self-cleavage kobs at 2500 uM GlcN6P; higher = faster cleavage; RNA array
Summary of the method: as §1

glucosamine-6-phosphate [3] = variants of: B1; assay: self-cleavage kobs at 10000 uM GlcN6P; higher = faster cleavage; RNA array
Summary of the method: as §1

glucosamine-6-phosphate [4] = variants of: B1; assay: self-cleavage kobs at 640 uM GlcN6P; higher = faster cleavage; RNA array
Summary of the method: as §1

glucosamine-6-phosphate [5] = variants of: B1; assay: self-cleavage kobs at 160 uM GlcN6P; higher = faster cleavage; RNA array
Summary of the method: as §1

Variant	self-cleavage kobs at 40 uM GlcN6P (glucosamine-6-phosphate [1])	self-cleavage kobs at 2500 uM GlcN6P (glucosamine-6-phosphate [2])	self-cleavage kobs at 10000 uM GlcN6P (glucosamine-6-phosphate [3])	self-cleavage kobs at 640 uM GlcN6P (glucosamine-6-phosphate [4])	self-cleavage kobs at 160 uM GlcN6P (glucosamine-6-phosphate [5])
AUAAAAGCGCCAGAGCUACAGAAAUGUAGUUGACGAUGAGCAGGUUUAUCGAAUUGUCGGCGGAUGCCUCCAAA [A15G G37U G41C U56G]	< 1e-05 s⁻¹	< 1e-05 s⁻¹	< 1e-05 s⁻¹		
AUAAAAGCGCCAGAUCUACAGAAAUGUAGUUGACGAGGAGGAGGUUUAUCGAAUUUUCGGCGGAUGCCUCCAAA [A15U]	0.000227 ± 4e-06 s⁻¹	0.00682 ± 0.00026 s⁻¹	0.00847 ± 0.00024 s⁻¹	0.00245 ± 8.9e-05 s⁻¹	0.00061 ± 2.2e-05 s⁻¹
AUAAAAGCGCCAGAGCUACAGAAAUGUAGUGGACGAGGUGGAGGUUUAUCGAAUUUUCGGCGGAUGCCUCCAAA [A15G U31G A39U]	3.3e-05 ± 1.1e-05 s⁻¹	0.000869 ± 0.00014 s⁻¹	0.00265 ± 0.00042 s⁻¹	0.000575 ± 0.00013 s⁻¹	0.000104 ± 1.8e-05 s⁻¹
AUAAAAGCGCCAGAUCUACAGAAAUGUAAUUGACGAGGAGGAAGUUUAUCGAAUUUUCGGCGGAUGCCUCCAAA [A15U G29A G43A]	< 1e-05 s⁻¹		< 1e-05 s⁻¹		
AUAAAAGCGCCAGAGCUACAGAAAUGUAGUUGAAGAGGAGGAGGUUUAUCGAAAUUUCGGCGGAUGCCUCUAAA [A15G C34A U54A C71U]	< 1e-05 s⁻¹			< 1e-05 s⁻¹	
AUAAAAGCGCCAGAUCUACAGAAAUGUAGUUGACGAGGAGGAGGUUUACCGAAUUUUCGGCGGAUGCCUCCAAA [A15U U49C]	< 1e-05 s⁻¹		< 1e-05 s⁻¹	< 1e-05 s⁻¹	
AUAAAAGCGCCAGAUCUACAGAAAUGUAGUUGACGAGGAGGAGGUUUAGCGAAUUUUCGGCGGAUGCCUCCAAA [A15U U49G]	< 1e-05 s⁻¹				
AUAAAAGCGCCAGAUCUACAGAAAUGUAGUUGACGAGGAGGAGGUUUAUCGAGUUUUCGGCGGAUGCCUCCAAA [A15U A53G]	0.00019 ± 1.8e-05 s⁻¹	0.00373 ± 0.00055 s⁻¹	0.00681 ± 0.00053 s⁻¹	0.0015 ± 0.0002 s⁻¹	0.000531 ± 6.8e-05 s⁻¹
AUAAAAGCGCCAGAAAUACAGAAAUGUAGUUGACGAGGAGGAGGUUUAUCGAAUUUUCGGCGGUUGCCUCCAAA [C16A A64U]	< 1e-05 s⁻¹				< 1e-05 s⁻¹
AUAAAAGCGCCAGAUCUACAGAAAUGUAGUUGCCGAGGAGGAGGUUUAUCGAAUUUUCGGCGGAUGCCGCCAAA [A15U A33C U69G]	< 1e-05 s⁻¹		< 1e-05 s⁻¹	< 1e-05 s⁻¹	
AUAAAAGCGCCAGAGCUACAGAAAUGUAGUUGACGAGGAGGAGGUGUAUCGAAUUUUCGGCGGAUGCCUCCAAA [A15G U46G]	0.000184 ± 2e-05 s⁻¹			0.00198 ± 0.00026 s⁻¹	0.000667 ± 0.0001 s⁻¹
AUAAAAGCGCCAGAUCUACAGAAAUGUAGUUGACGAGGAGGAGGUUUUUCGAAUUUUCCGCGGAUGCCUCCAAA [A15U A48U G59C]	< 1e-05 s⁻¹			< 1e-05 s⁻¹	
AUAAAAGCGCCAGAGCUACAGAAAUGUAGUUGACGAGGAGGAGGUGUUUCGAAUUUUCAGCGGAUGCCUCCAAA [A15G U46G A48U G59A]	< 1e-05 s⁻¹	< 1e-05 s⁻¹	< 1e-05 s⁻¹		< 1e-05 s⁻¹
AUAAAAGCGCCAGAUCUACAGAAAUGUAGUCGACGAGGAGGAGGUUUAUGGAAUUUUCGGCGGAUGCCUCCAAA [A15U U31C C50G]	5.26e-05 ± 2.5e-05 s⁻¹				
AUAAAAGCGCCAGAUCUACAGAAAUGUAGUUCAAGAGGAGGAGGUUUAUCGAAUUUUCGGCGGAUGCCUCCAAA [A15U G32C C34A]	< 1e-05 s⁻¹				
AUAAAAGCGCCAGAGCUACAGAAAUGUAGUUGACGAGGAGGAGGUUUAUCGAAUUCUCGGCGGAUGGCUCCAAA [A15G U56C C67G]	< 1e-05 s⁻¹				

Variant	self-cleavage kobs at 40 uM GlcN6P (glucosamine-6-phosphate [1])	self-cleavage kobs at 2500 uM GlcN6P (glucosamine-6-phosphate [2])	self-cleavage kobs at 10000 uM GlcN6P (glucosamine-6-phosphate [3])	self-cleavage kobs at 640 uM GlcN6P (glucosamine-6-phosphate [4])	self-cleavage kobs at 160 uM GlcN6P (glucosamine-6-phosphate [5])
AUAAAAGCGCCAGAUCUACAGAAAUGUAGUUGACGAGGAGGAGGUUUAUCGAAUUUUCGGCGGAUGCAUCCAAA [A15U C68A]	< 1e-05 s⁻¹				
AUAAAAGCGCCAGAUCUACAGAAAUGUAGUUGACGAGGAGUGGGUUUAUCGAAUUUCCGGCGGAUGCCUACAAA [A15U G41U A42G U57C C70A]	< 1e-05 s⁻¹				
AUAAAAGCGCCAGAUCUACAGAAAUGUAGUUGACGAGGAGGAGAUUUAUCGAAUUUUCGGCGGAUGCCUCCAAA [A15U G44A]	< 1e-05 s⁻¹		2.88e-05 ± 1.1e-05 s⁻¹	< 1e-05 s⁻¹	< 1e-05 s⁻¹
AUAAAAGCGCCAGAUCUACAGAAAUGUAGUUGACGAGGACGAGGUUCAUCGAAUUUUCGGCGGAUGCCUGCAAA [A15U G40C U47C C70G]	< 1e-05 s⁻¹				
AUAAAAGCGCCAGACCUACAGAAAUGUAGUUGACGAGGAGGAGGUUUAUCGAAUUUGCGGCGGAUGCCUCCAAA [A15C U57G]	< 1e-05 s⁻¹				< 1e-05 s⁻¹
AUAAAAGCGCCAGAUGUACAGAAAUGUAGUUCACGAGGAGGAGGUUUAUCGAAUUUUCGGCGGAUGCCUCCAAA [A15U C16G G32C]	< 1e-05 s⁻¹				
AUAAAAGCGCCAGAGUUACAGAAAUGUAGUUGACGAGGAGGAGGUUUAUCGUAUUUACUGCGGAUGCCUCCAAA [A15G C16U A52U U57A G59U]	< 1e-05 s⁻¹		< 1e-05 s⁻¹		< 1e-05 s⁻¹
AUAAAAGCGCCAGAGCUACAGAAAUGUAGUUGACCAGGAGGAGGUUUAUCGAAUUUUCGGCGGAUGCCUCCAAA [A15G G35C]	< 1e-05 s⁻¹	< 1e-05 s⁻¹		< 1e-05 s⁻¹	
AUAAAAGCGCCAGAGCUACAGAAAUGUAGUUGACGAGGAGGAGGAUUAUCGAAUUUUCGGCGGAUGCCUCCAAA [A15G U45A]	0.00128 ± 0.00026 s⁻¹				
AUAAAAGCGCCAGAUCUACAGAAAUGUAGUUGACGCGGAGGAGGUGUAUCGAAUUUUCGGCGGAUGCCUCCAAA [A15U A36C U46G]	< 1e-05 s⁻¹		< 1e-05 s⁻¹		
AUAAAAGCGCCAGACCUACAGAAAUGUAGUUGACGAGGAGGAGGUUUAUCGAAUUUUCAGCGGAUGCCUCAAAA [A15C G59A C71A]	< 1e-05 s⁻¹		< 1e-05 s⁻¹		
AUAAAAGCGCCAGAUCUACAGAAAUGUAGUUGACGAGGAGGAGGUUUAUCGAAUUUUCGGCAGAUGCCUCCAAA [A15U G62A]	< 1e-05 s⁻¹	< 1e-05 s⁻¹	< 1e-05 s⁻¹		< 1e-05 s⁻¹
AUAAAAGCGCCAGAGCUACAGAAAUGUAGGUGACGAGGAGGAGUUUUAUCGAAUUUUCGGCGGAUGCCUCCAAA [A15G U30G G44U]	< 1e-05 s⁻¹				
AUAAAAGCGCCAGAUCUACAGAAAUGUAGUUGACGAGGAGGAGGUUUAUCGAAUUUUCGGCGGAGGCCUCCAAA [A15U U65G]	3.19e-05 ± 1.1e-05 s⁻¹			0.00036 ± 4.5e-05 s⁻¹	6.21e-05 ± 1e-05 s⁻¹
AUAAAAGCGCCAGAUCUACAGAAAUGUAGUUGACAAGGAGGAGGUUUAUCGAAUUUUCGGAGGAUGCCUCCAAA [A15U G35A C61A]	< 1e-05 s⁻¹			< 1e-05 s⁻¹	
